Assay results taken from paper PMC4274898.
These are yes or no findings as the source states them, for the method shown. Some entries that bind do so weakly or less than the wild type.

Protein sequences, listed by entry. Tags and fused reporters are not part of them.
UniProt Q38832: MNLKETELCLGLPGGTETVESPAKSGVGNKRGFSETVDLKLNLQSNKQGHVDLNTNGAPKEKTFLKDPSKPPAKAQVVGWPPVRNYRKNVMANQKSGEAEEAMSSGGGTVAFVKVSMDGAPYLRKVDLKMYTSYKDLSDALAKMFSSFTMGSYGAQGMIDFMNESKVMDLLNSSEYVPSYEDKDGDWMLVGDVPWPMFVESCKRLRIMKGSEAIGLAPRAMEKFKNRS
UniProt Q38825: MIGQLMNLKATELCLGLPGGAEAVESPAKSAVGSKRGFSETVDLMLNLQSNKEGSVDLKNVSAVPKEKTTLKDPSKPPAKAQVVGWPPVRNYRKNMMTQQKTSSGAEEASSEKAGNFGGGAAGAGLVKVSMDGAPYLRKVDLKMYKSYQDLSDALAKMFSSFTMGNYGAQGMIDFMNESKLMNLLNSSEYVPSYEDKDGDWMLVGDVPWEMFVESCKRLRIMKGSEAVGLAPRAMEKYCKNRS
UniProt P93830: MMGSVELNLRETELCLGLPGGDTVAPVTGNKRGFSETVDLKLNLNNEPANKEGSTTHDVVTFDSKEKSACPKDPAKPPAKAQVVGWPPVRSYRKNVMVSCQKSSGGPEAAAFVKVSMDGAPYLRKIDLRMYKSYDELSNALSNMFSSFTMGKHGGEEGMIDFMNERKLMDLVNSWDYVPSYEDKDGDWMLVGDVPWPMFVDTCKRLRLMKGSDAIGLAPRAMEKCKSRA

Columns and labels:
Test in all cases: two-hybrid; S. cerevisiae AH109 co-transformed with pGBKT7-ARF (bait) and pGADT7-Aux/IAA (prey); growth on SD/-Ade-His-Leu-Trp against SD/-Leu/-Trp; at least 10 independent colonies; serial dilutions for strength
[1] = target: T1, ARF4 (Arabidopsis thaliana) (UniProt Q9ZTX9)
T1 sequence: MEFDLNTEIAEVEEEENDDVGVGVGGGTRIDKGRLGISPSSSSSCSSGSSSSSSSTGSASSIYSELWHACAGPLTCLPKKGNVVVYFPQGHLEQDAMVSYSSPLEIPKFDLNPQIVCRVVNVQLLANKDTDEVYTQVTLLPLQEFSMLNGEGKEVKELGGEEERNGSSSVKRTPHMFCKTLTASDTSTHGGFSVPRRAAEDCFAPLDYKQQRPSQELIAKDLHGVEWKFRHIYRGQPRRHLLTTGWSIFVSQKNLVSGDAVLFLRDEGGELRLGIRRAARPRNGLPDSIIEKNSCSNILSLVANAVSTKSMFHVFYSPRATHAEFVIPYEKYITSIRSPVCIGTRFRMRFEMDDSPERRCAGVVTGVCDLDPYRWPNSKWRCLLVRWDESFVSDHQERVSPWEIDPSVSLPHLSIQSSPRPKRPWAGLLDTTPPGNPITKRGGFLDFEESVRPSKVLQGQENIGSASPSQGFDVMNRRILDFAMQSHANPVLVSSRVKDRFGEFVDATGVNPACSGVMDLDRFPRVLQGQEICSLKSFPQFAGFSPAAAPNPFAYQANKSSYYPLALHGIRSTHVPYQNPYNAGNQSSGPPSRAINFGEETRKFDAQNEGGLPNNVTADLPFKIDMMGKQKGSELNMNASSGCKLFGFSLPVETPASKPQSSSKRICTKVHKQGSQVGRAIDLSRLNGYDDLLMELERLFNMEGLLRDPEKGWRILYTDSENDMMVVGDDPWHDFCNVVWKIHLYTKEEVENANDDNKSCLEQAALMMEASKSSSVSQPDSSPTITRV

[2] = target: T2, ARF7 (Arabidopsis thaliana) (UniProt P93022)
T2 sequence: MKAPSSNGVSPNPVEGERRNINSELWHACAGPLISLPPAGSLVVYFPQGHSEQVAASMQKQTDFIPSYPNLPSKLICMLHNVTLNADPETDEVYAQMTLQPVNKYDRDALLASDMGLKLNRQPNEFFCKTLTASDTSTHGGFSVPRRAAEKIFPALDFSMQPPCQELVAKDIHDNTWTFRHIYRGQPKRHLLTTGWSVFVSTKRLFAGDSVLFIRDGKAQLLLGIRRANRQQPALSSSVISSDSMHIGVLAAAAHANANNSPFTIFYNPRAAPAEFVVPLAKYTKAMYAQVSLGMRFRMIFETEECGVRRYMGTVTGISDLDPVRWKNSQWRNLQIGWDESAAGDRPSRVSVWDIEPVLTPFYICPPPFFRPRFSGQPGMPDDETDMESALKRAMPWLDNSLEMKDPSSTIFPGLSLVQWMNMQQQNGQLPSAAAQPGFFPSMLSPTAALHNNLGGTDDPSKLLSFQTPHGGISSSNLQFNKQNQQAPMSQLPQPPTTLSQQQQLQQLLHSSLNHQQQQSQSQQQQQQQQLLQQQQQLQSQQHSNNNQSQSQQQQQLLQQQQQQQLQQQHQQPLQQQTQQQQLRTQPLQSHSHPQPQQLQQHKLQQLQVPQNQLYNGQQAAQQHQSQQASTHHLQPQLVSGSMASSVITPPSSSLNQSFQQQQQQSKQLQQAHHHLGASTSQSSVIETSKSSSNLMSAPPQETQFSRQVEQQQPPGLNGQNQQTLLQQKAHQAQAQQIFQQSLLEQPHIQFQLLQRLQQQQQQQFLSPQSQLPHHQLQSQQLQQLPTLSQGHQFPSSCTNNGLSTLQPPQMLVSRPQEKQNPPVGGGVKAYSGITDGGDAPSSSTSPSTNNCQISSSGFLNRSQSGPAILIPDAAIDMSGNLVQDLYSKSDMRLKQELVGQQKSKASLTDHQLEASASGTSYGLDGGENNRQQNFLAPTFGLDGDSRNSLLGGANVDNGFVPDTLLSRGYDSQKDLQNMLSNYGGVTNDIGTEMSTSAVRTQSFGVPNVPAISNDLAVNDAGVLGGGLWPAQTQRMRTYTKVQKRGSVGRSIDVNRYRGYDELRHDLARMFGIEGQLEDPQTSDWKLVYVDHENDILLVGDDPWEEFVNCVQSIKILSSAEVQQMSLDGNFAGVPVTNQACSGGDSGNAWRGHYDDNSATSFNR

[3] = target: T3, ARF5 (Arabidopsis thaliana) (UniProt P93024)
T3 sequence: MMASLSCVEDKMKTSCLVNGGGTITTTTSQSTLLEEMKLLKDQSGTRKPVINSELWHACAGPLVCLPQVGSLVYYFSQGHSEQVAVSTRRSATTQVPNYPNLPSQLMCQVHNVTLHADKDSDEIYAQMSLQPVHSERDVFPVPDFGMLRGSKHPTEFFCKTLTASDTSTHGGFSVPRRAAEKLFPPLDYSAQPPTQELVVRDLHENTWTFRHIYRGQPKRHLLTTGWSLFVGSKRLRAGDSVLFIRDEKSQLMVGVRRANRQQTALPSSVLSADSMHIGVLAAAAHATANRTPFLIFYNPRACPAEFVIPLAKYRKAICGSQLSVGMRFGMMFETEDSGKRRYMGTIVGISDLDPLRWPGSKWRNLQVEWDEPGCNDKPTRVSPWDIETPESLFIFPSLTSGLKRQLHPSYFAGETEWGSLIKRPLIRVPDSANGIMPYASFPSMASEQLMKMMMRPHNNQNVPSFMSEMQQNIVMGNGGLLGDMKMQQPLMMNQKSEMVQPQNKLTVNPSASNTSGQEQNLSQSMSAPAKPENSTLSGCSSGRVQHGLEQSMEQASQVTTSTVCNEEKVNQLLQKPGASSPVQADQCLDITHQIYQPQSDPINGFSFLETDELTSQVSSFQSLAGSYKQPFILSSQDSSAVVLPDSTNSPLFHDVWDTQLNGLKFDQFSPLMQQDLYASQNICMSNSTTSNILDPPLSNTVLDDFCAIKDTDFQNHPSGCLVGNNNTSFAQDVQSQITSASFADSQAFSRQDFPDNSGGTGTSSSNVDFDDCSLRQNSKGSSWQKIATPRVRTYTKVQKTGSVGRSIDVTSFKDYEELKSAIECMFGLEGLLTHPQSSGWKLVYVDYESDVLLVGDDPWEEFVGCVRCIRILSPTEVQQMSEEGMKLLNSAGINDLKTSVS

Aux/IAA14 (from UniProt Q38832 1-228) was tested, and the binding [1] was “binds”, the binding [2] was “binds” and the binding [3] was “binds”.
With Aux/IAA7 (from UniProt Q38825 1-243) the binding [1] was “binds”, the binding [2] was “no binding” and the binding [3] was “binds”.
With Aux/IAA17 (from UniProt P93830 1-229) the binding [1] was “binds”, the binding [2] was “binds” and the binding [3] was “binds”.
